Assay results published in the supplement of paper PMC4967469.
By IC50 is meant the dose at which the fit gives 50% viability; a fit beyond the top or the lowest dose is shown as a bound at that dose. AUC is the area under the same curve over the 256-fold range up to the top dose, as a fraction; values near 1 show little effect. For part of these data: Where the top dose is marked as inferred, it comes from the curve model; the source does not state it. For part of these data: Where an entry number is given, a second screen of the drug exists; the two often differ.

Key:
Experiment in all cases: Viability of human cancer cell lines after 72 h of drug (GDSC screen)
SNX-2112 = compound: CC1(C)CC(=O)c2c(C(F)(F)F)nn(-c3ccc(C(N)=O)c(N[C@H]4CC[C@H](O)CC4)c3)c2C1 [SNX-2112]; conditions: top dose 2.56 µM
Experimental: (§1)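 Human cancer cell lines in 384-well plates, medium with 10% serum, drug for 72 h over a 256-fold dose range (nine 2-fold or five 4-fold steps up to the top dose). Adherent lines were fixed and stained with the nucleic acid dye Syto60, suspension lines read with resazurin; signal relative to control wells, capped at 0 and 100%. One two-parameter sigmoid per drug and line, fitted in a mixed model over all curves with the slope shared within a line.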

Vinblastine = compound: CC[C@]1(O)C[C@@H]2CN(CCc3c([nH]c4ccccc34)[C@@](C(=O)OC)(c3cc4c(cc3OC)N(C)[C@H]3[C@@](O)(C(=O)OC)[C@H](OC(C)=O)[C@]5(CC)C=CCN6CC[C@]43[C@@H]65)C2)C1 [Vinblastine]; conditions: top dose 0.1 µM; top dose inferred
Experimental: as §1

Afatinib = compound: CN(C)C/C=C/C(=O)Nc1cc2c(Nc3ccc(F)c(Cl)c3)ncnc2cc1O[C@H]1CCOC1 [Afatinib]
Experimental: as §1

PF-562271 = compound: CN(c1ncccc1CNc1nc(Nc2ccc3c(c2)CC(=O)N3)ncc1C(F)(F)F)S(C)(=O)=O [PF-562271]; conditions: top dose 2.56 µM; top dose inferred
Experimental: as §1

XMD13-2 = compound: O=C(NC1CC1)c1cccc(-c2ccc3c(NC(=O)C4CC4)n[nH]c3c2)c1 [XMD13-2]; conditions: top dose 10.24 µM; top dose inferred
Experimental: as §1

[1] = top dose 0.5 µM, screen: GDSC drug entry 1032
[2] = top dose 10 µM, screen: GDSC drug entry 1377, top dose inferred

Cell Line | AUC (SNX-2112) | IC50 (SNX-2112) [µM] | AUC (Vinblastine) | IC50 (Vinblastine) [µM] | AUC (Afatinib; [1]) | IC50 (Afatinib; [1]) [µM] | AUC (Afatinib; [2]) | IC50 (Afatinib; [2]) [µM] | AUC (PF-562271) | IC50 (PF-562271) [µM] | AUC (XMD13-2) | IC50 (XMD13-2) [µM]
Hs939-T (melanoma, adherent) | 0.946 | > 2.56 | 0.693 | 0.023 | 0.984 | > 0.5 | 0.983 | > 10 | 0.923 | > 2.56 | 0.969 | > 10.2
HuCCT1 (biliary tract, adherent) | 0.599 | 0.309 | 0.641 | 0.0161 | 0.966 | > 0.5 | 0.866 | > 10 | 0.899 | > 2.56 | 0.903 | > 10.2
HuO9 (osteosarcoma, adherent) | 0.874 | > 2.56 | 0.62 | 0.0139 | 0.963 | > 0.5 | 0.965 | > 10 | 0.909 | > 2.56 | 0.974 | > 10.2
HuO-3N1 (osteosarcoma, adherent) | 0.917 | > 2.56 | 0.619 | 0.0148 | 0.983 | > 0.5 | 0.968 | > 10 | 0.959 | > 2.56 | 0.955 | > 10.2
HuP-T3 (pancreas, adherent) | 0.753 | 1.03 | 0.554 | 0.00905 | 0.956 | > 0.5 | 0.966 | > 10 | 0.931 | > 2.56 | 0.938 | > 10.2
HuP-T4 (pancreas, adherent) | 0.392 | 0.0792 | 0.631 | 0.0147 | 0.869 | > 0.5 | 0.899 | > 10 | 0.935 | > 2.56 | 0.87 | > 10.2
IA-LM (large cell lung carcinoma, adherent) | 0.706 | 0.662 | 0.789 | 0.0503 | 0.985 | > 0.5 | 0.946 | > 10 | 0.905 | > 2.56 | 0.909 | > 10.2
IGR-1 (melanoma, adherent) | 0.663 | 0.425 | 0.691 | 0.0198 | 0.989 | > 0.5 | 0.99 | > 10 | 0.905 | > 2.56 | 0.983 | > 10.2
IHH-4 (thyroid, semi-adherent) | 0.992 | > 2.56 | 0.331 | 0.00236 | 0.991 | > 0.5 | 0.965 | > 10 | 0.891 | 1.94 | 0.954 | > 10.2
IMR-5 (neuroblastoma, adherent) | 0.489 | 0.15 | 0.831 | 0.0498 | 0.982 | > 0.5 | 0.944 | > 10 | 0.897 | 2.27 | 0.89 | 8.52
IPC-298 (melanoma, adherent) | 0.467 | 0.13 | 0.636 | 0.0147 | 0.98 | > 0.5 | 0.986 | > 10 | 0.925 | > 2.56 | 0.954 | > 10.2
IST-MEL1 (melanoma, adherent) | 0.348 | 0.0557 | 0.501 | 0.00631 | 0.965 | > 0.5 | 0.974 | > 10 | 0.91 | > 2.56 | 0.941 | > 10.2
IST-SL1 (small cell lung carcinoma, semi-adherent) | 0.886 | > 2.56 | 0.336 | 0.00215 | 0.98 | > 0.5 | 0.978 | > 10 | 0.905 | > 2.56 | 0.683 | 2.11
JEG-3 (urogenital system, adherent) | 0.991 | > 2.56 | 0.554 | 0.00866 | 0.988 | > 0.5 | 0.979 | > 10 | 0.977 | > 2.56 | 0.99 | > 10.2
JHH-1 (liver, adherent) | 0.791 | 1.26 | 0.629 | 0.0147 | 0.69 | 0.112 | 0.484 | 0.563 | 0.924 | > 2.56 | 0.916 | > 10.2
JHH-2 (liver, adherent) | 0.428 | 0.1 | 0.755 | 0.0362 | 0.968 | > 0.5 | 0.972 | > 10 | 0.973 | > 2.56 | 0.935 | > 10.2
JHH-4 (liver, adherent) | 0.84 | 1.75 | 0.925 | > 0.1 | 0.976 | > 0.5 | 0.952 | > 10 | 0.951 | > 2.56 | 0.986 | > 10.2
JHH-6 (liver, adherent) | 0.872 | 2.52 | 0.652 | 0.0166 | 0.987 | > 0.5 | 0.985 | > 10 | 0.905 | > 2.56 | 0.987 | > 10.2
